# This is one part of the list.
# What was measured:
# HSkMC = human skeletal muscle cells; experiment: cytotoxicity call (relative viability < 0.9); details: 10 µM
# HepG2 = experiment: cytotoxicity call (relative viability < 0.9); details: 10 µM
# S. aureus RN4220 = experiment: growth inhibition call (relative growth <= 0.2); details: 50 µM
SMILES,cytotoxicity call (HSkMC),cytotoxicity call (HepG2),growth inhibition call (S. aureus RN4220)
Cc1ccc(S(=O)(=O)Nc2ccc3c(c2)CC(=O)N([C@@H](C)CO)C[C@H](C)[C@@H](CN(C)S(C)(=O)=O)O3)cc1,inactive,inactive,inactive
C[C@@H]1CCCCO[C@H](CN(C)C(=O)Nc2ccc3c(c2)OCO3)[C@H](C)CN([C@H](C)CO)C(=O)c2cc(NS(=O)(=O)c3ccc(F)cc3)ccc2O1,inactive,inactive,inactive
COc1cccc(S(=O)(=O)N[C@@H]2CC[C@@H](CC(=O)NC3CCC3)O[C@H]2CO)c1,inactive,inactive,inactive
C[C@H](CO)N1C[C@H](C)[C@H](CN(C)Cc2ccc(-c3ccccc3)cc2)Oc2ccc(NS(=O)(=O)c3cccs3)cc2CC1=O,inactive,inactive,inactive
C[C@@H]1CN([C@@H](C)CO)C(=O)c2cccc(NC(=O)Nc3ccccc3)c2O[C@@H]1CN(C)S(C)(=O)=O,inactive,inactive,inactive
C[C@@H]1CN([C@@H](C)CO)S(=O)(=O)c2ccc(C#C[C@@H](C)O)cc2O[C@@H]1CN(C)C(=O)c1ccccc1,inactive,inactive,inactive
C[C@@H]1CN([C@@H](C)CO)C(=O)Cc2cc(NC(=O)CCC(F)(F)F)ccc2O[C@@H]1CN(C)Cc1ccc(C(F)(F)F)cc1,inactive,inactive,inactive
Cc1ccc(S(=O)(=O)N(C)C[C@@H]2Oc3c(NS(=O)(=O)c4cccs4)cccc3C(=O)N([C@H](C)CO)C[C@@H]2C)cc1,inactive,active,inactive
O=C(C[C@H]1C=C[C@@H](NS(=O)(=O)c2ccc(F)cc2)[C@@H](CO)O1)N1CCC(Cc2ccccc2)CC1,inactive,inactive,inactive
COCCN1C(=O)CO[C@H]2CN(S(=O)(=O)c3ccccc3)C[C@@H]21,inactive,inactive,inactive
C[C@H](O)C#Cc1ccc2c(c1)O[C@H](CN(C)C(=O)C1CCCCC1)[C@H](C)CN([C@H](C)CO)S2(=O)=O,inactive,inactive,inactive
Cc1ccc(S(=O)(=O)Nc2ccc3c(c2)CC(=O)N([C@H](C)CO)C[C@@H](C)[C@@H](CN(C)S(=O)(=O)c2cn(C)cn2)O3)cc1,inactive,inactive,inactive
C[C@H](CO)N1C[C@H](C)[C@H](CN(C)S(=O)(=O)c2cn(C)cn2)OCCCC[C@H](C)Oc2ccc(NC(=O)Nc3cccc4ccccc34)cc2C1=O,inactive,inactive,inactive
C[N+](C)(C)CCCCCCNC(=O)[C@H]1C[C@H]2C(=O)N[C@@H](Cc3ccccc3)C(=O)N2[C@H]1c1ccc(O)cc1,inactive,inactive,inactive
COc1ccc(S(=O)(=O)N(C)C[C@@H]2OCCCC[C@H](C)Oc3ccc(NC(=O)Nc4ccc5c(c4)OCO5)cc3C(=O)N([C@H](C)CO)C[C@H]2C)cc1,inactive,inactive,inactive
C[C@H](CO)N1C[C@H](C)[C@@H](CN(C)C(=O)Nc2ccc(C(F)(F)F)cc2)Oc2c(NC(=O)NC3CCCCC3)cccc2C1=O,inactive,inactive,inactive
C[C@H](CO)N1C[C@H](C)[C@H](CN(C)C(=O)NC2CCCCC2)Oc2ccc(NC(=O)CCN3CCOCC3)cc2C1=O,inactive,inactive,inactive
COc1ccc(CN(C)C[C@H]2Oc3c(NC(=O)CCCCCC(=O)Nc4ccccc4N)cccc3C(=O)N([C@H](C)CO)C[C@@H]2C)cc1,inactive,inactive,inactive
C[C@@H]1CN([C@H](C)CO)C(=O)c2cc(NC(=O)Cn3cnnn3)ccc2O[C@H]1CN(C)S(=O)(=O)c1ccc(Cl)cc1,inactive,inactive,inactive
C[C@H]1CN([C@@H](C)CO)S(=O)(=O)c2ccc(C3=CCCCC3)cc2O[C@H]1CN(C)C(=O)C1CCOCC1,inactive,inactive,inactive
C[C@@H]1CN([C@H](C)CO)C(=O)Cc2cc(NS(=O)(=O)c3ccc(F)cc3)ccc2O[C@H]1CN(C)S(=O)(=O)c1ccc(F)cc1,inactive,inactive,inactive
C[C@@]1(C2CC2)NC(=O)NC1=O,inactive,inactive,inactive
C[C@@H]1CN([C@@H](C)CO)C(=O)c2cc(NS(=O)(=O)c3ccc(Cl)cc3)ccc2O[C@@H](C)CCCCO[C@@H]1CN(C)Cc1ccc(C(=O)O)cc1,inactive,inactive,inactive
CC(C)NC(=O)N(C)C[C@H]1Oc2ccc(NS(=O)(=O)c3ccc(F)cc3)cc2CC(=O)N([C@H](C)CO)C[C@@H]1C,inactive,inactive,inactive
COc1ccc2c3c(n(c2c1)C)[C@@H](CO)N(C[C@]13CN(C1)C(=O)Nc1cccc(c1)F)S(=O)(=O)C,inactive,inactive,inactive
C=CC[C@@H](CC(=O)N(CCO)Cc1ccccc1)C(=O)NCCOC(=O)[C@H](CC=C)CC(=O)OC(C)(C)C,inactive,inactive,inactive
COCC(=O)N1CC[C@]2(CC1)CN([C@H](CO)c1c2c2ccc(cc2n1C)OC)C(=O)CN1CCOCC1,inactive,inactive,inactive

SMILES,cytotoxicity call (HSkMC),cytotoxicity call (HepG2),growth inhibition call (S. aureus RN4220)
C[C@@H]1CN([C@H](C)CO)C(=O)Cc2cc(NC(=O)C3CC3)ccc2O[C@H]1CN(C)C(=O)Nc1ccc(F)cc1,inactive,inactive,inactive
CC(=O)N[C@@H]1CC(=O)N(c2ccccc2)C1,inactive,inactive,inactive
Cc1noc(C)c1NC(=O)N(C)C[C@H]1Oc2ncc(C#CCN(C)C)cc2C(=O)N([C@@H](C)CO)C[C@H]1C,inactive,inactive,inactive
C[C@H]1CN([C@@H](C)CO)C(=O)c2cc(C#Cc3ccccc3F)cnc2O[C@@H]1CN(C)C(=O)Cc1cccnc1,inactive,inactive,inactive
C[C@H](CO)N1C[C@H](C)[C@@H](CN(C)C(=O)Nc2ccc(C(F)(F)F)cc2)Oc2c(NS(=O)(=O)c3ccc(Cl)cc3)cccc2C1=O,inactive,inactive,inactive
Cc1noc(C)c1S(=O)(=O)Nc1ccc2c(c1)CC(=O)N([C@@H](C)CO)C[C@H](C)[C@H](CN(C)Cc1ccc(Oc3ccccc3)cc1)O2,inactive,inactive,inactive
C[C@@H]1CCCCO[C@@H](CN(C)S(=O)(=O)c2ccc(Cl)cc2)[C@@H](C)CN([C@@H](C)CO)C(=O)c2cc(NS(=O)(=O)c3ccc(F)cc3)ccc2O1,inactive,active,inactive
C[C@@H]1CCCCO[C@H](CN(C)S(=O)(=O)c2ccc(Cl)cc2)[C@@H](C)CN([C@@H](C)CO)C(=O)c2cc(NC(=O)Nc3ccc(C(F)(F)F)cc3)ccc2O1,inactive,inactive,inactive
Cc1cn(C2C=CC(CO)O2)c(=O)[nH]c1=O (centres undefined),inactive,inactive,inactive
COCCNC(=O)C[C@H]1CC[C@@H]2[C@H](COc3ccc(NS(=O)(=O)c4ccc(Cl)cc4)cc3C(=O)N2C)O1,inactive,inactive,inactive
COc1ccc(S(=O)(=O)N(C)C[C@H]2Oc3cc(C#CC4CCCC4)ccc3S(=O)(=O)N([C@@H](C)CO)C[C@@H]2C)cc1,inactive,inactive,inactive
Cn1c(=O)c2c(ncn2CC(O)CO)n(C)c1=O (centres undefined),inactive,inactive,inactive
CCN(CC)c1ccc(N2CC=C[C@@]34O[C@@H]5C=CCOC(=O)[C@@H]5[C@H]3C(=O)N(CCCCCO)[C@@H]4C2=O)cc1,inactive,inactive,inactive
C[C@H]1CN([C@@H](C)CO)S(=O)(=O)c2ccc(C#Cc3ccc(F)cc3)cc2O[C@H]1CN(C)S(=O)(=O)c1ccc(F)cc1,inactive,inactive,inactive
C[C@H]1CN([C@@H](C)CO)C(=O)c2cccc(NC(=O)C3CCCCC3)c2O[C@@H]1CN(C)Cc1ccc(-c2ccccc2)cc1,inactive,inactive,inactive
C[C@@H]1CN([C@H](C)CO)C(=O)Cc2cc(NS(=O)(=O)c3ccc(Cl)cc3)ccc2O[C@@H]1CN(C)Cc1ccc(C(F)(F)F)cc1,active,inactive,inactive
C[C@@H]1CCCCO[C@@H](CN(C)CC2CCCCC2)[C@H](C)CN([C@H](C)CO)C(=O)c2cc(NC(=O)Nc3ccccc3)ccc2O1,inactive,active,inactive
C[C@@H]1CN([C@H](C)CO)C(=O)c2cccc(NC(=O)Nc3ccccc3)c2O[C@H]1CN(C)Cc1ccc(-c2ccccc2)cc1,active,inactive,inactive
C[C@H]1CN([C@@H](C)CO)C(=O)c2cccc(NC(=O)CCCCCC(=O)Nc3ccccc3N)c2O[C@@H]1CN(C)Cc1ccccc1,active,inactive,inactive
C[C@@H]1CN([C@H](C)CO)C(=O)CCCn2cc(nn2)CO[C@H]1CN(C)S(C)(=O)=O,inactive,inactive,inactive
C=CC[C@@H](CC(=O)NCCO)C(=O)N[C@@H](C)COC(=O)[C@@H](CC=C)NC(=O)OCC1c2ccccc2-c2ccccc21,inactive,inactive,inactive
Cc1noc(C)c1S(=O)(=O)N(C)C[C@@H]1OCCCC[C@H](C)Oc2ccc(NS(C)(=O)=O)cc2C(=O)N([C@@H](C)CO)C[C@H]1C,inactive,inactive,inactive
C[C@@H]1CCCCO[C@H](CN(C)C(=O)NC2CCCCC2)[C@H](C)CN([C@@H](C)CO)C(=O)c2cc(NC(=O)Nc3ccc(F)cc3)ccc2O1,inactive,inactive,inactive
C[C@@H]1CN([C@@H](C)CO)C(=O)Cc2cc(NS(=O)(=O)c3cccs3)ccc2O[C@@H]1CN(C)S(=O)(=O)c1ccccc1,inactive,inactive,inactive
Cc1noc(C)c1NC(=O)Nc1cccc2c1O[C@H](CN(C)Cc1ccc(Oc3ccccc3)cc1)[C@@H](C)CN([C@@H](C)CO)C2=O,inactive,inactive,inactive
C[C@H](CO)N1C[C@H](C)[C@@H](CN(C)C(=O)Nc2ccc3c(c2)OCO3)OCCCC[C@H](C)Oc2ccc(NC(=O)c3ccccc3)cc2C1=O,inactive,inactive,inactive
